Laboratory results published in paper PMC4336329 (PLoS ONE, 2015).
Out of some 310,000 compounds screened, about 2,200 (0.71%) showed an effect of 50% or more. The effect is printed as a negative number. Some of the results follow.

Target: human ether-à-go-go-related gene (hERG) potassium channel (human, UniProt Q12809)
Assay: primary screen, population patch clamp on CHO cells stably expressing hERG

Sequence of human ether-à-go-go-related gene (hERG) potassium channel (Q12809 whole entry, looked up): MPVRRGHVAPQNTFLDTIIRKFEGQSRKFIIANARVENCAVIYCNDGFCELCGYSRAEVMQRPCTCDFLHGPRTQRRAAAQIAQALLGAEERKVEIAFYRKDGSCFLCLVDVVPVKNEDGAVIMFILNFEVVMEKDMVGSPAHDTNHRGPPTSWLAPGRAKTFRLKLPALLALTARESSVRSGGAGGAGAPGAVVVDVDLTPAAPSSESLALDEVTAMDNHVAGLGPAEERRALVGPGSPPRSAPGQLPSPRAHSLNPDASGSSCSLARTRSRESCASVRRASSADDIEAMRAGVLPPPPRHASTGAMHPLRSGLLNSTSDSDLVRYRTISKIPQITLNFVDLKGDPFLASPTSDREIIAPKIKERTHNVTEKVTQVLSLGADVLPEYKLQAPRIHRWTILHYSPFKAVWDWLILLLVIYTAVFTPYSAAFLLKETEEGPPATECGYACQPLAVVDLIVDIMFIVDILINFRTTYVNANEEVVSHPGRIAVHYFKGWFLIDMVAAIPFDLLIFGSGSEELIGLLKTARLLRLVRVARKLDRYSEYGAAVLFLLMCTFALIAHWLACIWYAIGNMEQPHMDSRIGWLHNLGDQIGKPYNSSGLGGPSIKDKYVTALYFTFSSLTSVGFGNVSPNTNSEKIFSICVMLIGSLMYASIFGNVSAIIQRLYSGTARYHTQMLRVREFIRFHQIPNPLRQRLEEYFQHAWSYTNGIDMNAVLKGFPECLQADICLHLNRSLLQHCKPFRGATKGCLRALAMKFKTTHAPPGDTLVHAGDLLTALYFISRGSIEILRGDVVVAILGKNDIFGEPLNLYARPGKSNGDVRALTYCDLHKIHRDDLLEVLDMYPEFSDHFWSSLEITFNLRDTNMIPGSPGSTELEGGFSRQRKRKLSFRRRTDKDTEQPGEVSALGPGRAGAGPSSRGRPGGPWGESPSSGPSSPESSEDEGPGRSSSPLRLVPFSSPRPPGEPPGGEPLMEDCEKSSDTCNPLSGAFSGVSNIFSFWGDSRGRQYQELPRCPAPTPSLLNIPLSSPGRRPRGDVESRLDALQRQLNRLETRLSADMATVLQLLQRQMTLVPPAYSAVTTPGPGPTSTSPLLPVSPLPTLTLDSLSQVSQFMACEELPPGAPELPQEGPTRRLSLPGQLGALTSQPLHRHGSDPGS

SMILES | hERG current change (%, negative = inhibition) at 1uM [%]
O=C(NCCCCCCNC(=O)c1ccc(Br)s1)c1ccc(Br)s1 | 4.84
O=Cc1cnc(N2CCN(c3ccccc3)CC2)s1 | 7.29
COc1ccc(-c2cc(C3CC3)nc(N)c2C#N)cc1 | 15.2
CCc1c(C)nc2[nH]nc(NC(=O)C(F)(F)F)n2c1=O | 15
COc1ccc(CCNC(=O)CC2SC(=NCc3ccccc3OC)NC2=O)cc1 (centres unmarked) | -5.3
CC(=O)Nc1ccc2c(c1)ncn2-c1ccccc1 | 13.8
COc1ccccc1CCC(=O)NNC(=O)c1ccccc1 | 9.45
Cn1c(CNS(=O)(=O)c2ccc(Br)cc2)n[nH]c1=S | -46.9
Cc1c(C(=O)NCc2ccc3c(c2)OCO3)oc2ccc(Br)cc12 | 10.8
CCC1CCCCN1C(=O)Cn1c(=O)oc2ccccc21 (centres unmarked) | 5.94
COc1ccc(/C(O)=C2/C(=O)C(=O)N(c3nc(C)c(C)s3)C2c2ccco2)cc1 (centres unmarked) | 12.8
CCc1cc2cc3c(cc2nc1SCC(=O)Nc1cc(OC)c(OC)cc1C(=O)O)OCO3 | -0.115
C[C@@H]1O[C@@H](OC2C(O)C(OCCc3ccc(O)c(O)c3)OC(CO)C2OC(=O)/C=C/c2ccc(O)c(O)c2)[C@H](O)[C@H](O)[C@H]1O (some centres unmarked) | 14.1
O=C(O)c1ccc2c3c(cccc13)C(=O)N(c1cccc3ccccc13)C2=O | 20.9
COc1cc(S(=O)(=O)N2CCOCC2)ccc1NC(=O)CN1c2cccc3cccc(c23)S1(=O)=O | -3.69
COc1ccc(CCNC(=O)c2sc3cc(C)ccc3c2Cl)cc1 | 1.97
Cn1cc(Br)c(C(=O)NNC(=O)c2cccc(Br)c2)n1 | 5.87
COc1cc(C2NC(=O)NC(C)=C2C(=O)OC2CCCC(C)C2)cc(Br)c1O (centres unmarked) | 6.78
COc1cc(/C=N/Nc2nncn2N)ccc1OCc1c(C)no[n+]1[O-] | 6.95
CNC(=O)C1=C(C)Nc2nc3ccccc3n2C1c1cccc(OC)c1 (centres unmarked) | -2.68
COCCNC(=O)c1ccccc1-c1ccccc1C(=O)O | -1.37
COc1ccc(N(CC(=O)NCc2ccc(F)cc2)C(=O)Cn2nnc(-c3ccc(C)o3)n2)cc1OC | 8.09
O=[N+]([O-])c1cc(Cl)ccc1N1CCCCC1 | 13.1

SMILES | hERG current change (%, negative = inhibition) at 1uM [%]
CCOC(=O)c1sc(=S)n(Cc2ccccc2)c1C | 12.2
COC(=O)c1sc(N)c(C(=O)OC)c1COC(=O)CNS(=O)(=O)c1ccc(C)c(C)c1 | 11.4
CC1CCCN(C(=O)C(=O)Nc2ccc3nc4n(c(=O)c3c2)CCCCC4)C1 (centres unmarked) | 9.21
COc1ccc(/C=N/NC(=O)C(=O)N2CCN(c3ccccc3OC)CC2)cc1 | 2.46
Cc1ccc(C)c(C(=O)CCC(=O)OCn2nnc3ccccc3c2=O)c1 | 12.2
COc1ccc(CC(=O)N2N=C(C)CC2(O)C(F)(F)F)cc1OC (centres unmarked) | 10.2
CCCCN(C(=O)C1=NN(c2cc(C)ccc2C)C(=O)CC1)c1c(N)n(CCC)c(=O)[nH]c1=O | 3.7
Cc1ccc(C)c(OCC(=O)NNC(=O)C2CCC2)c1 | 23.4
COc1ccc(NC(=O)C2CCCN(S(=O)(=O)c3cccc4nonc34)C2)c(OC)c1 (centres unmarked) | 5.95
CCCC(=O)N1CCN(c2ccc(NC(=O)c3cccs3)cc2)CC1 | 0.426
Cc1ccc(N(CC(=O)N/N=C/c2cccc(Br)c2)S(C)(=O)=O)cc1 | 14.2
CSc1ccccc1Nc1ncnc(N)n1 | 5.08
Cc1nn(-c2cccc(Cl)c2)c2nc(-c3ccco3)cc(C(=O)O)c12 | 19.7
Cc1cccc(NC(=O)Nc2cccc(C)n2)n1 | 13.8
CCOc1ccc(N(CC(=O)Nc2cccc(C)c2C)S(=O)(=O)c2c(C)[nH]c(=O)[nH]c2=O)cc1 | 9.87
CCc1ccc(CN2CC(C(=O)O)CC2=O)cc1 (centres unmarked) | 8.08
COc1cc(CNCc2ccccn2)ccc1OCc1cccc(Cl)c1.Cl | -22.3
CCCCn1c(=O)[nH]c(=O)c2c1nc(-c1ccc3ccccc3c1)n2CC | 1.39
Cn1nc(C(F)(F)F)c2cc(C(=O)Nc3ccc(C(F)(F)F)cc3)sc21 | 14.1
COc1ccc(C2C(CC(=O)O)=C(O)C(=O)N2c2ccccc2)cc1 (centres unmarked) | 12.4
ClCc1nnc(-c2ccccc2)o1 | 15.5
Cc1ccnc(NS(=O)(=O)c2ccc(NC(=O)CCc3ccccc3)cc2)n1 | 11.8
CC(C)c1ccccc1NC(=S)NCC1(N(C)C)CCCCC1 | 0.479

SMILES | hERG current change (%, negative = inhibition) at 1uM [%]
O=C(CN1CCN(c2ccc(Cl)cc2)CC1)Nc1cccc(F)c1 | 11.4
O=[N+]([O-])c1ccc(NCc2ccccn2)nc1 | 3.7
COc1cc2c(cc1OC)CN(CCOc1ccc(Br)cc1)CC2 | -12.7
CCCCNC(=O)c1cc2nc3c(c(C(F)(F)F)n2n1)CCc1ccccc1-3 | 10.9
N#Cc1c(N)nc(SCc2ccncc2)c(C#N)c1-c1cccs1 | -1.21
COc1ccc(NC(=O)CSc2nc(C)cc(C(F)(F)F)n2)cc1 | -3.19
CC(=O)Nc1ccc(NS(=O)(=O)c2ccc3ccccc3c2)cc1 | 5.46
O=C1NN(c2cccc(Br)c2)C(=O)/C1=C/c1ccc(-c2cc([N+](=O)[O-])ccc2O)o1 | 7.2
Cc1ccnc(NC(=O)c2cc([N+](=O)[O-])cc([N+](=O)[O-])c2)c1 | 12.5
CCNC(=O)OCC(CC)NC(=O)OCC(C)C (centres unmarked) | 5.98
CC(Sc1nnc(N)s1)c1ccccc1Cl (centres unmarked) | 1.31
COc1ccc(-c2nc3ccccc3c(=O)n2-c2nccs2)cc1 | 12.7
CC(C)CC(=O)NC(NC(=S)Nc1cccc2cccnc12)C(Cl)(Cl)Cl (centres unmarked) | 12.1
O=C(NCCC1=CCCCC1)C1COc2ccccc2O1 (centres unmarked) | -4.32
CCC(=O)NC1CCN(C(=S)NC)CC1 | 9.41
CCN1CCN(CCNC(=O)c2cc(Cl)c(NC(=O)C3=C(C)OCCS3)cc2OC)CC1 | -38.5
O=C(Nc1nc2cc3c(cc2s1)OCO3)c1cccc(N2C(=O)CCC2=O)c1 | 10.6
COc1ccc(-c2nsc(SCC(=O)Nc3cc(C)on3)n2)cc1 | 11.9
O=C(Nc1ccc(N2CCN(C(=O)c3ccccc3)CC2)cc1)c1cc([N+](=O)[O-])ccc1N1CCOCC1 | -1.34
COc1ccc(N2C(=O)[C@@H]3[C@H](C2=O)[C@H]2c4ccccc4C=CN2[C@@H]3C(C)=O)cc1 | 19.4
CCC(C)c1ccccc1N1CC(C(=O)N2CCN(S(=O)(=O)c3ccccc3Br)CC2)CC1=O (centres unmarked) | -8.57
O=C1/C(=C\c2ccc(O)c(O)c2)SC(=S)N1Cc1ccccc1 | 12.3
CCOC(=S)NC(=O)c1sc2ccccc2c1Cl | 12.2

SMILES | hERG current change (%, negative = inhibition) at 1uM [%]
Cc1nn(-c2ccc(NC(=O)c3ccncc3)cc2)c(C)c1Cl | 15.7
O=C(Nc1cccc(S(=O)(=O)N2CCOCC2)c1)c1ccco1 | 4.81
NP(=O)(OCCCc1ccccc1)Oc1ccccc1 (centres unmarked) | 11.1
COc1cc2c(cc1OC)C(C(=O)O)C(c1cc(Br)c(O)c(OC)c1)N(C)C2=O (centres unmarked) | 12.9
CCN(Cc1ccc(O)cc1)CC1CCCN(CCc2cccc(F)c2)C1 (centres unmarked) | -8.8
C=CCn1c(SCC(=O)OCC)nc(C(F)(F)F)cc1=O | 2.47
CN(CC(=O)Nc1ccc(F)c(F)c1F)C(=O)c1ccc2c(c1)NC(=O)CS2 | 6.46
Brc1ccc(-c2nnc(-c3cccc(Br)c3)o2)cc1 | 0.517
COC(=O)[C@H](Cc1ccccc1)NC(=O)N(C)Cc1ccccc1 | 10.4
C=CCn1c(SCC(=O)c2[nH]c(C)c(C(=O)OCC)c2C)nc2scc(-c3ccccc3)c2c1=O | 11.2
CC1CCc2c(sc3c2C2=NS(=O)(=O)CCN2C=N3)C1 (centres unmarked) | 15
CN1CCN(C(=O)C2CCN(S(=O)(=O)c3ccc(F)cc3)CC2)CC1 | 9.29
c1ccc(CSC2=NCCS2)cc1 | 7.18
CCCCCNC(=O)Cn1c(=O)c2c(ncn2CC(C)C)n(Cc2ccccc2)c1=O | 9.23
CCOc1ccccc1NC(=O)C1CCN(C(=O)NCc2ccccc2)CC1 | 14
O=C(NNc1ncc(C(F)(F)F)cc1Cl)c1c(Cl)cccc1Cl | -12
CCc1ccc(NC(=O)c2cc(C)nn2-c2ccccc2)cc1 | 13.1
CC(=O)c1csc(-c2ccccc2)n1 | 14.6
COC(=O)c1cnn2c(C(F)(F)F)cc(-c3ccco3)nc12 | 14.3
CCOC(=O)C(CC)Sc1nc2c(cnn2-c2ccccc2)c(=O)[nH]1 (centres unmarked) | 8.79
